In PubChem BioAssay AID1745853 (National Center for Advancing Translational Sciences (NCATS), 2022) one finds activity change, negative = inhibition data, which are given here for 29 compounds.

The other results are listed elsewhere or left out. Shown are side measurements of this screen, not its main read-out; they come without a call.

Test in all cases: Primary Screen for Target Class Profiling of Small Molecule Inhibitors of Methyltransferases
Assay [1] deals with Glycine N-methyltransferase (Homo sapiens) (UniProt Q14749). As to conditions: purified enzyme, MTase-Glo SAH luminescence; measured here: GNMT inhibition; at 40 µM; stronger effect = lower value. An outline of the steps: (§1)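 Each enzyme was assayed with SAM and its substrate. SAH formation detected by MTase-Glo luminescence; single-point 40 uM screen[…].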
Assay [2] addresses Guanidinoacetate N-methyltransferase (Homo sapiens) (UniProt Q14353). As to conditions: purified enzyme, MTase-Glo SAH luminescence; measured here: GAMT inhibition; at 40 µM; stronger effect = lower value. An outline of the steps:
as §1

Assay [3] addresses Histamine N-methyltransferase (Homo sapiens) (UniProt P50135). As to conditions: purified enzyme, MTase-Glo SAH luminescence; measured here: HNMT inhibition; at 40 µM; stronger effect = lower value. An outline of the steps: as §1
Assay [4] addresses Nicotinamide N-methyltransferase (Homo sapiens) (UniProt P40261). The settings on record: purified enzyme, MTase-Glo SAH luminescence; measured here: NNMT inhibition; at 40 µM; stronger effect = lower value. An outline of the steps: as §1
For assay [5], the target named is Phenylethanolamine N-methyltransferase (Homo sapiens) (UniProt P11086). As to conditions: purified enzyme, MTase-Glo SAH luminescence; measured here: PNMT inhibition; at 40 µM; stronger effect = lower value. An outline of the steps:
as §1
% is scaled to controls: 0 for no effect and ±100 for the full control effect.

In the case of `CC(=O)O[C@@H]1[C@H](O[C@@H]2O[C@H](CO)[C@@H](O)[C@H](O)[C@H]2O)[C@@H](O[C@@H]2O[C@@H](C)[C@H](O)[C@@H](O[C@@H]3O[C@H](CO)[C@@H](O)[C@H](O)[C@H]3O)[C@H]2O)[C@H](OC(=O)[C@]23CCC(C)(C)C[C@H]2C2=CCC4[C@@]5(C)C[C@H](O)[C@H](O[C@@H]6O[C@H](C(=O)O)[C@@H](O)[C@H](O)[C@H]6O)[C@@](C)(C(=O)O)C5CC[C@@]4(C)[C@]2(C)CC3)O[C@@H]1C` (stereo partly drawn), the activity change, negative = inhibition is 0.087% in assay [1]; 9.68% in assay [2]; 10.6% in assay [3]; -1.04% in assay [4]; 9.49% in assay [5].
The like results for `Cc1cnc(-c2cnc(NCCNc3ccc(C#N)cn3)nc2-c2ccc(Cl)cc2Cl)[nH]1` were, in that order, -8.81%, 6.04%, -36.4%, -25.5% and -10.5%.
Consider `CC(C)(O)CCc1ccc(OCc2cc(-c3cccc(OC(F)F)c3)c3ncccc3c2)cc1`, for which the activity change, negative = inhibition in assay [1] was 5.83%; in assay [2], 0.322%; in assay [3] it was 10.2%; in assay [4] it was -10.6%; in assay [5] it was 4.41%.
Regarding `CCOCCOC1CCN(C(=O)c2nn(C)c3ccccc23)CC1`, the activity change, negative = inhibition was -3.02% in assay [1]; -5.45% in assay [2]; -1.37% in assay [3]; -2.96% in assay [4]; 3.01% in assay [5].
In the case of `CC(C)CCN1C(=O)CC[C@H]2CN(C(=O)Cn3ccc(=O)[nH]c3=O)CC[C@H]21`, the activity change, negative = inhibition in assay [1] is -3.63%; in assay [2], -8.94%; in assay [3], -2.99%; in assay [4], -7.88%; in assay [5] it was -8.04%.
`CC1CCCN(C(=O)c2coc(COc3cccc(F)c3F)n2)C1` (stereo not drawn): the activity change, negative = inhibition in assay [1] is -6.97%; in assay [2], -9.87%; in assay [3] it was -1.97%; in assay [4], -11.2%; in assay [5] it was -11.3%.
Taken in the same sequence, the figures for `CCc1ccc(S(=O)(=O)c2nnn3c2nc(NC2CC2)c2cc(Cl)ccc23)cc1` were -11.7%, 5.83%, -2.94%, -5.35% and -6.48%.
`COc1ccc2cc3n(c2c1)CC(C)(C(=O)NC1CCCC1)N(Cc1ccccc1C)C3=O` (stereo not drawn): the activity change, negative = inhibition is -3.62% in assay [1]; 1.88% in assay [2]; -1.63% in assay [3]; -7.95% in assay [4]; -2.3% in assay [5].
Turning to `COc1ccc(S(=O)(=O)NCC(c2ccco2)N2CCN(c3ccccc3)CC2)cc1` (stereo not drawn), the activity change, negative = inhibition in assay [1] was 0.817%; in assay [2], 0%; in assay [3] it was -4.03%; in assay [4] it was -7.97%; in assay [5], -4.31%.
For `CC1(C(=O)NC2CCCCCCC2)Cn2c(ccc2-c2ccccc2)C(=O)N1CC1CCCO1` (stereo not drawn), the activity change, negative = inhibition in assay [1] was 0.676%; in assay [2], 0%; in assay [3] it was 3.32%; in assay [4], -12.4%; in assay [5] it was 1.02%.
As for `CC(C)c1nc(-c2ccc(OC3CCN(C(=O)c4n[nH]c5ccccc45)C3)cc2)no1` (stereo not drawn), the activity change, negative = inhibition was -3.45% in assay [1]; -2.05% in assay [2]; -1.83% in assay [3]; 0.817% in assay [4]; 4.13% in assay [5].
On to `CCn1c(-c2nonc2N)nc2cncc(C(=O)N3CC[C@H](N)C3)c21`, for which the activity change, negative = inhibition in assay [2] was -9.24%; in assay [4], -12.5%; in assay [5], 1.68%.
Turning to `CCc1ccc(CNC(=O)c2cc3n(n2)CC(C)(C(=O)NCc2ccccc2)N(C)C3=O)cc1` (stereo not drawn), the activity change, negative = inhibition in assay [1] worked out at 0.788%; in assay [2] it was 0%; in assay [3] it was 4.07%; in assay [4] it was 3.15%; in assay [5] it was 1.32%.
`CC(C)C1c2cccn2CCN1C(=O)Nc1ccccc1F` (stereo not drawn): the activity change, negative = inhibition in assay [1] came to 15.6%; in assay [2] it was 1.1%; in assay [3], 8.3%; in assay [4], 6.3%; in assay [5], 8.78%.
With `Cc1ccc(C(=O)CSc2nnc3n(C)c(=O)c4ccc(C(=O)NC5CCCCC5)cc4n23)cc1`, the activity change, negative = inhibition in assay [1] is 3.09%; in assay [2], 0.293%; in assay [3], 4.46%; in assay [4] it was 9.26%; in assay [5], 6.59%.
For `COc1ccc(CN2CCC(N3CCOC3=O)CC2)cc1`, the activity change, negative = inhibition in assay [1] is -7.09%; in assay [2] it was -8.69%; in assay [3], -3.88%; in assay [4], -19.3%; in assay [5] it was -3.61%.
For the compound `O=C(c1ccc(Br)o1)N1CCC(c2n[nH]c(=O)n2Cc2ccc(F)cc2)CC1`, the activity change, negative = inhibition was 1.4% in assay [1]; 1.48% in assay [2]; 1.44% in assay [3]; -2.53% in assay [4]; 2.19% in assay [5].
Regarding `CO[C@@H](Cc1ccc(OCCc2nc(-c3ccccc3)oc2C)c2ccsc12)C(=O)O`, the activity change, negative = inhibition is -0.613% in assay [1]; 7.52% in assay [2]; 11.4% in assay [3]; -23.6% in assay [4]; 7.43% in assay [5].
For `Cc1ccc(C#N)c(-c2cc(NCc3cccnc3)nc3[nH]ccc23)n1`, the activity change, negative = inhibition was -9.18% in assay [1]; -5.31% in assay [2]; -4.3% in assay [3]; -7.97% in assay [4]; -8.6% in assay [5].
The like results for `NCc1cccc(-c2cncnc2)c1` were, in that order, -2.45%, -0.569%, -15.1%, 0.192% and -2.5%.
The like results for `COCC(=O)NC[C@H]1CCN(Cc2ccc(Br)o2)C[C@H]1N(C)C` were, in that order, -2.55%, -1.85%, -0.299%, -8.14% and -9.57%.
For `CC1(C(=O)NC2CCCC2)Cn2c(ccc2-c2ccco2)C(=O)N1Cc1ccccc1` (stereo not drawn), the activity change, negative = inhibition was -4% in assay [1]; 0% in assay [2]; 0.458% in assay [3]; -3.02% in assay [4]; -2.25% in assay [5].
Take `CC(=O)Nc1c2n(c3ccccc13)CC(C)(C(=O)NC1CCCCC1)N(Cc1ccc(F)cc1)C2=O` (stereo not drawn): the activity change, negative = inhibition in assay [1] was -8.2%; in assay [2] it was -3.05%; in assay [3], -1.64%; in assay [4], -4.42%; in assay [5], -1.75%.
Turning to `CCCn1c(=O)c2ccc(C(=O)NCC(C)C)cc2n2c(=O)n(CC(=O)c3ccc(F)cc3F)nc12`, the activity change, negative = inhibition in assay [1] amounted to 2.97%; in assay [2], 1.02%; in assay [3], 6.07%; in assay [4], 0.078%; in assay [5] it was 5.56%.
The like results for `O=C1CO[C@H]2CCN(Cc3ccc4c(c3)CCO4)CC[C@@H]2N1Cc1ccccc1` were, in that order, -10.8%, -11.1%, -21.7%, -32.9% and -30.5%.
Consider `COc1ccc(-c2nnc3n(Cc4ccccc4)c(=O)c4ccccc4n23)cc1OC`, for which the activity change, negative = inhibition in assay [1] was -8.54%; in assay [2] it was 4.97%; in assay [3], -3.23%; in assay [4], -2.92%; in assay [5] it was -4.28%.
Taken in the same sequence, the figures for `C=C1CCC[C@]2(C)CC[C@@H](C(=C)C(=O)O)[C@H](O)[C@@H]12` were -1.03%, -4.25%, -0.198%, -15% and 1.85%.
For `CNCc1ccc(-c2[nH]c3cc(F)cc4c3c2CCNC4=O)cc1`, the activity change, negative = inhibition in assay [1] was -11.7%; in assay [2], -6.13%; in assay [3], -54.5%; in assay [4] it was -38.7%; in assay [5] it was -22%.
In the case of `O=C(C1CC2(CCNCC2)CN1)N1CCC(c2nc3ccccc3[nH]2)CC1` (stereo not drawn), the activity change, negative = inhibition was -1.08% in assay [1]; 0.745% in assay [2]; -0.563% in assay [3]; 3.05% in assay [4]; -3.19% in assay [5].
